This is an account of results in the supplement of paper PMC4604168 (melanoma cell lines).

The other results are listed elsewhere or left out. Most values come without repeats; read them as rough.
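Also: cells treated in 1,536-well plates, then fixed and DAPI-stained, with nuclei counted from automated high-throughput microscope images.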

In the assay the test system is SkMel30. The experiment in a line: cell count relative to DMSO control; melanoma cells; higher = more viable cells. The conditions noted are these: library dose: standard library concentration; 72 h.
As to `CCCS(=O)(=O)Nc1ccc(F)c(C(=O)c2c[nH]c3ncc(Cl)cc23)c1F` + NC(=O)Nc1cc(-c2cccc(F)c2)sc1C(=O)N[C@H]1CCCNC1 [AZD7762] (first compound 0.4 µM, partner dose 0.1 µM), the cell count is 67.1%. For the molecule `CN(c1ncccc1CNc1nc(Nc2ccc3c(c2)CC(=O)N3)ncc1C(F)(F)F)S(C)(=O)=O` + O=c1cc(-c2cccc3c2Sc2ccccc2S3)oc(N2CCOCC2)c1 [KU55933] (first compound 0.4 µM, partner dose 5 µM), the cell count worked out at 116%. As to `CN(c1ncccc1CNc1nc(Nc2ccc3c(c2)CC(=O)N3)ncc1C(F)(F)F)S(C)(=O)=O` + O=C(O)C(=O)Nc1sc2c(c1C(=O)O)CCNC2 [TCS401] (first compound 0.4 µM, partner dose 8.33333 µM), the cell count amounted to 132%.

Molecule `NC1(c2ccc(-c3nc4ccn5c(=O)[nH]nc5c4cc3-c3ccccc3)cc2)CCC1` + O=S(=O)(c1ccccc1)N(CC(F)(F)F)c1ccc(C(O)(C(F)(F)F)C(F)(F)F)cc1 [T0901317] (first compound 2 µM, partner dose 7 µM) showed a cell count of 86.9%.

`CCCS(=O)(=O)Nc1ccc(F)c(C(=O)c2c[nH]c3ncc(Cl)cc23)c1F` + O=S(=O)(c1ccccc1)N(CC(F)(F)F)c1ccc(C(O)(C(F)(F)F)C(F)(F)F)cc1 [T0901317] (first compound 0.4 µM, partner dose 7 µM): the cell count was found to be 115%. To `CN(c1ncccc1CNc1nc(Nc2ccc3c(c2)CC(=O)N3)ncc1C(F)(F)F)S(C)(=O)=O` + O=C(Nc1ccccc1)c1cc([N+](=O)[O-])ccc1Cl [GW9662] (first compound 0.4 µM, partner dose 10 µM) belongs 116%; to `CS(=O)(=O)c1ccc(C(=O)Nc2ccc(Cl)c(-c3ccccn3)c2)c(Cl)c1` [vismodegib] + COc1cc2ncnc(Nc3ccc(Oc4ccccc4)cc3)c2cc1OC [SrcI1] (first compound 5 µM, partner dose 10 µM), 92.2%; to `NC1(c2ccc(-c3nc4ccn5c(=O)[nH]nc5c4cc3-c3ccccc3)cc2)CCC1` + O=C(O)C(=O)Nc1sc2c(c1C(=O)O)CCNC2 [TCS401] (first compound 2 µM, partner dose 8.33333 µM), 105%. To `NC1(c2ccc(-c3nc4ccn5c(=O)[nH]nc5c4cc3-c3ccccc3)cc2)CCC1` + COc1ccc(COc2ccc(Cc3cnc(N)nc3N)cc2OC)cc1 [GW2580] (first compound 2 µM, partner dose 5 µM) belongs 92.5%; to `CS(=O)(=O)c1ccc(C(=O)Nc2ccc(Cl)c(-c3ccccn3)c2)c(Cl)c1` [vismodegib] + Cn1cc(/C=C2\C(=O)Nc3cccnc32)c2ccccc21 [GW441756] (first compound 5 µM, partner dose 2 µM), 108%.

As for `NC1(c2ccc(-c3nc4ccn5c(=O)[nH]nc5c4cc3-c3ccccc3)cc2)CCC1` + CCN(CC)CCCCNc1ncc2cc(-c3cc(OC)cc(OC)c3)c(NC(=O)NC(C)(C)C)nc2n1 [PD173074] (first compound 2 µM, partner dose 0.5 µM), the cell count was found to be 99.6%. To `C=C(c1ccc(C(=O)O)cc1)c1cc2c(cc1C)C(C)(C)CCC2(C)C` [Bexarotene] + COc1ccc(-c2ccc3c(N4CCOCC4)nc(N4C[C@@H](C)O[C@@H](C)C4)nc3n2)cc1CO [KU0063794] (first compound 10 µM, partner dose 0.1 µM) belongs 128%; to `NC1(c2ccc(-c3nc4ccn5c(=O)[nH]nc5c4cc3-c3ccccc3)cc2)CCC1` + c1cc(-c2cnn3cc(-c4ccc(OCCN5CCCCC5)cc4)cnc23)ccn1 [Dorsomorphin] (first compound 2 µM, partner dose 2 µM), 99.8%; to `CN(c1ncccc1CNc1nc(Nc2ccc3c(c2)CC(=O)N3)ncc1C(F)(F)F)S(C)(=O)=O` + O=S(=O)(c1ccccc1)N(CC(F)(F)F)c1ccc(C(O)(C(F)(F)F)C(F)(F)F)cc1 [T0901317] (first compound 0.4 µM, partner dose 7 µM), 84.9%. With `C=C(c1ccc(C(=O)O)cc1)c1cc2c(cc1C)C(C)(C)CCC2(C)C` [Bexarotene] + O=C1NC(=O)/C(=C/c2ccc(-c3ccc(F)cc3O)o2)S1 [AS252424] (first compound 10 µM, partner dose 5 µM) the figure was 95.9%. With `CN(c1ncccc1CNc1nc(Nc2ccc3c(c2)CC(=O)N3)ncc1C(F)(F)F)S(C)(=O)=O` + COc1cc2c(Oc3ccc4[nH]c(C)cc4c3F)ncnc2cc1OCCCN1CCCC1 [cediranib] (first compound 0.4 µM, partner dose 2 µM) the figure was 100%. For the molecule `CCCS(=O)(=O)Nc1ccc(F)c(C(=O)c2c[nH]c3ncc(Cl)cc23)c1F` + CCCCCCCCCCCC1=C(O)C(=O)C=C(O)C1=O [Embelin] (first compound 0.4 µM, partner dose 6 µM), the cell count worked out at 132%. In the case of `CCCS(=O)(=O)Nc1ccc(F)c(C(=O)c2c[nH]c3ncc(Cl)cc23)c1F` + Cc1cc(N2CCOCC2)cc2[nH]c(-c3c(NC[C@@H](O)c4cccc(Cl)c4)cc[nH]c3=O)nc12 [BMS536924] (first compound 0.4 µM, partner dose 1 µM), the cell count was found to be 80.2%. Molecule `C=C(c1ccc(C(=O)O)cc1)c1cc2c(cc1C)C(C)(C)CCC2(C)C` [Bexarotene] + Cn1cc(/C=C2\C(=O)Nc3cccnc32)c2ccccc21 [GW441756] (first compound 10 µM, partner dose 2 µM) returned a cell count of 108%. To `C=C(c1ccc(C(=O)O)cc1)c1cc2c(cc1C)C(C)(C)CCC2(C)C` [Bexarotene] + C[C@@H]1CCN(C(=O)CC#N)C[C@@H]1N(C)c1ncnc2[nH]ccc12 [CP690550] (first compound 10 µM, partner dose 5 µM) belongs 101%; to `C=C(c1ccc(C(=O)O)cc1)c1cc2c(cc1C)C(C)(C)CCC2(C)C` [Bexarotene] + N#Cc1c(O)c2c(-c3ccc(-c4ccccc4O)cc3)csc2[nH]c1=O [A769662] (first compound 10 µM, partner dose 10 µM), 105%. To `C=C(c1ccc(C(=O)O)cc1)c1cc2c(cc1C)C(C)(C)CCC2(C)C` [Bexarotene] + Cc1cc([N+](=O)[O-])ccc1NS(=O)(=O)c1cc(Cl)ccc1Cl [FH535] (first compound 10 µM, partner dose 5 µM) belongs 103%.

In turn, `CCCS(=O)(=O)Nc1ccc(F)c(C(=O)c2c[nH]c3ncc(Cl)cc23)c1F` + COc1cc2c(Oc3ccc4[nH]c(C)cc4c3F)ncnc2cc1OCCCN1CCCC1 [cediranib] (first compound 0.4 µM, partner dose 2 µM) gave a cell count of 90.1%.

On to `C=C(c1ccc(C(=O)O)cc1)c1cc2c(cc1C)C(C)(C)CCC2(C)C` [Bexarotene] + CCN(CC)CCCCNc1ncc2cc(-c3cc(OC)cc(OC)c3)c(NC(=O)NC(C)(C)C)nc2n1 [PD173074] (first compound 10 µM, partner dose 0.5 µM), for which the cell count came out at 133%. To `C=C(c1ccc(C(=O)O)cc1)c1cc2c(cc1C)C(C)(C)CCC2(C)C` [Bexarotene] + CC(C)CCN1c2nc(Nc3cc(F)c(O)c(F)c3)ncc2N(C)C(=O)C1C [BID1870] (first compound 10 µM, partner dose 1 µM) belongs 78.6%. Take `CS(=O)(=O)c1ccc(C(=O)Nc2ccc(Cl)c(-c3ccccn3)c2)c(Cl)c1` [vismodegib] + O=C(Nc1ccccc1)c1cc([N+](=O)[O-])ccc1Cl [GW9662] (first compound 5 µM, partner dose 10 µM): the cell count was determined as 90.3%.

`CS(=O)(=O)c1ccc(C(=O)Nc2ccc(Cl)c(-c3ccccn3)c2)c(Cl)c1` [vismodegib] + c1cc(-c2cnn3cc(-c4ccc(OCCN5CCCCC5)cc4)cnc23)ccn1 [Dorsomorphin] (first compound 5 µM, partner dose 2 µM) yielded a cell count of 97.4%. With `CN(c1ncccc1CNc1nc(Nc2ccc3c(c2)CC(=O)N3)ncc1C(F)(F)F)S(C)(=O)=O` + O=C1NC(=O)/C(=C/c2ccc(-c3ccc(F)cc3O)o2)S1 [AS252424] (first compound 0.4 µM, partner dose 5 µM) the figure was 106%; with `CS(=O)(=O)c1ccc(C(=O)Nc2ccc(Cl)c(-c3ccccn3)c2)c(Cl)c1` [vismodegib] + CCN(CC)CCCCNc1ncc2cc(-c3cc(OC)cc(OC)c3)c(NC(=O)NC(C)(C)C)nc2n1 [PD173074] (first compound 5 µM, partner dose 0.5 µM), 97.9%.

Consider `C=C(c1ccc(C(=O)O)cc1)c1cc2c(cc1C)C(C)(C)CCC2(C)C` [Bexarotene] + O=c1cc(-c2cccc3c2Sc2ccccc2S3)oc(N2CCOCC2)c1 [KU55933] (first compound 10 µM, partner dose 5 µM), for which the cell count worked out at 140%. Consider `NC1(c2ccc(-c3nc4ccn5c(=O)[nH]nc5c4cc3-c3ccccc3)cc2)CCC1` + O=c1cc(-c2cccc3c2Sc2ccccc2S3)oc(N2CCOCC2)c1 [KU55933] (first compound 2 µM, partner dose 5 µM), for which the cell count came out at 102%.

Consider `NC1(c2ccc(-c3nc4ccn5c(=O)[nH]nc5c4cc3-c3ccccc3)cc2)CCC1` + COc1cc2ncnc(Nc3ccc(Oc4ccccc4)cc3)c2cc1OC [SrcI1] (first compound 2 µM, partner dose 10 µM), for which the cell count was 84.1%. Turning to `CCCS(=O)(=O)Nc1ccc(F)c(C(=O)c2c[nH]c3ncc(Cl)cc23)c1F` + COc1ccc(COc2ccc(Cc3cnc(N)nc3N)cc2OC)cc1 [GW2580] (first compound 0.4 µM, partner dose 5 µM), the cell count amounted to 116%.
